# Out of some 16,000 compounds screened, about 120 (0.75%) were called active. Roughly 4% stayed inconclusive and do not appear here. Calls follow the shape of the dose curve; as a rule, active = well fitted inhibition curve with a large enough effect; inconclusive = small, poorly fitted or top-dose-only effect; inactive = no such curve, though single readings can be large or run the other way. Some of the results follow.
# Target: Rap guanine nucleotide exchange factor 3 (Homo sapiens) (UniProt O95398)
# UniProt O95398, sequence (O95398 whole entry, looked up): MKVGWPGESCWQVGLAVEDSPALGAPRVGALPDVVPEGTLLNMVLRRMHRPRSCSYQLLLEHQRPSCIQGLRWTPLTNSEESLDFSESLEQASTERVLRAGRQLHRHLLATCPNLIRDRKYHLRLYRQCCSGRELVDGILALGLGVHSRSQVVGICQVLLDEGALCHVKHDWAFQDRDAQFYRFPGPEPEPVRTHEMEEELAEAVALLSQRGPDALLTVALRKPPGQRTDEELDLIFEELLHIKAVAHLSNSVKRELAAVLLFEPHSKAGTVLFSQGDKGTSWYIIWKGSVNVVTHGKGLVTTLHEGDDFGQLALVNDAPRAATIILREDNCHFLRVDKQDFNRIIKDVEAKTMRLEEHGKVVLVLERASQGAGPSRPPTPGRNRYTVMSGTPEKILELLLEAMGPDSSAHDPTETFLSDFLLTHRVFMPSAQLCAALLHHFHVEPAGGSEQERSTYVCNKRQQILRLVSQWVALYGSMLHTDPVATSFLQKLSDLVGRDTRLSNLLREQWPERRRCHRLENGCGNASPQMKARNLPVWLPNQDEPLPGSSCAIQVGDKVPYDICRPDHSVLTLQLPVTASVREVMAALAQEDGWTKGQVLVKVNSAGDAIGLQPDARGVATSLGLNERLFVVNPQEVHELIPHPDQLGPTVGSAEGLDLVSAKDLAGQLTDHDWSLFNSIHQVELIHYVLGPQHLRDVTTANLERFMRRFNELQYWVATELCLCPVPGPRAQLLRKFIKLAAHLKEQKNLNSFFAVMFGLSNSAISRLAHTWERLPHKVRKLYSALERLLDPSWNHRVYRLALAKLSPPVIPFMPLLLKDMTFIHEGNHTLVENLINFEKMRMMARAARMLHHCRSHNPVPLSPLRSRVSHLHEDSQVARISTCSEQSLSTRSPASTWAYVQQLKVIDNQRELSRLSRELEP
# Assay: Validation qHTS for antagonist of cAMP-regulated guanine nucleotide exchange factor 3 (EPAC1); also: nearly all actives have a fitted effect of over 75% in size
# Conditions: EPAC1 Rap1B-BODIPY-GDP exchange, fluorescence; series mostly up to 150 µM; activity change, negative = inhibition: at the top concentration
# How it was run: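 EPAC1 (100 nM) mixed with 250 nM RAP1B-BODIPY-GDP and 50 uM GDP; compounds in concentration series, 5 min at room temperature. Fluorescence (ex 480/em 540 nm) read every 5 min for 30 min; normalized to ATA control and DMSO.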
row,Compound,"activity change, negative = inhibition"
1,COc1cccc(Nc2ncc3nc(-c4cc(F)cc(F)c4)c(=O)n(C4CC4)c3n2)c1,inactive: 30.1%
2,Cc1nnc(C(=O)NC(C)(C)c2nc(C(=O)NCc3ccc(F)cc3)c(O)c(=O)n2C)o1,inactive: 4.24%
3,c1cn(-c2ccnc(-c3ccc4c(c3)OCO4)n2)cn1,inactive: 10.4%
4,N#Cc1ccc(CN2CC[C@@]3(CCCN(C(=O)c4ccco4)C3)C2)cc1,inactive: 19.4%
5,O=C1NC(=O)[C@H]2[C@@H]1[C@@H]1C=C[C@H]2C1,inactive: -2.08%
6,Cc1cnc(CNc2ccnc(-c3ccccc3Cl)n2)cn1,inactive: 15.7%
7,CS(=O)(=O)c1ccc(-c2ccc3c(c2)CC(CNC(=O)C2(N4CCOCC4)CCCCC2)O3)cc1 (stereo not given),inactive: 2.55%
8,Cc1cc(-c2ccnc(-n3ncc(C(=O)NCCc4ccncc4)c3C)n2)c(C)s1,inactive: 8.7%
9,CN(C)c1ncc2nc(-c3ccccc3)c(=O)n(Cc3ccc(F)cc3)c2n1,inactive: 11.2%
10,CCNc1ncc2nc(-c3ccc(OC)cc3)c(=O)n(C[C@H]3CCCO3)c2n1,inactive: 8.19%
11,Cc1cc(C)cc(C(=O)C[n+]2cccc(Br)c2)c1,inactive: -15%
12,O=C(c1cnccn1)N1CCC2(CCCN(c3ccncc3)C2)CC1,inactive: 30.6%
13,COc1ccc2c(c1OC)C(Cc1ccccc1)N1CCc3cc4c(cc3C1=C2)OCO4 (stereo not given),inactive: -4.66%
14,COc1ccc(-c2cc(=O)c3ccccc3o2)cc1,inactive: -1.54%
15,COc1ccc(-n2c(=O)c(-c3ccccc3)nc3cnc(N4CCNCC4)nc32)cc1,inactive: 19.3%
16,CCOC(=O)C1=C(C)NC(C)=C(C(=O)OC)[C@H]1c1cccc([N+](=O)[O-])c1,inactive: -14.1%
17,CN1CCN(c2ncc3nc(-c4cccs4)c(=O)n(C[C@H]4CCCO4)c3n2)CC1,inactive: 6.6%
18,O=S1(=O)CCOC[C@H](CC2CCCCC2)N1Cc1ccc(Cl)cc1,inactive: -3.6%
19,O=c1c(-c2cccs2)nc2cncnc2n1Cc1ccc(F)cc1,inactive: 3.72%
20,COc1ccc2c(=O)c(OC)c(-c3ccccc3)oc2c1,inactive: -14.2%
21,CCCCCCCCCCCCC/C=C/[C@@H](O)[C@H](CO)NC(=O)CCCCCCC,inactive: -20.2% [at 15.3 µM]
22,C=CCN1C[C@H](C(=O)N(CCCN(C)C)C(=O)NCC)C[C@@H]2c3cccc4[nH]cc(c34)C[C@H]21,inactive: 11.4%
23,FC(F)(F)c1ccccc1-c1cc(NCc2cccs2)ncn1,inactive: -11.2%
24,CN1CCC(=C2c3ccccc3C=Cc3ccccc32)CC1,inactive
25,COCC(=O)N1CCC[C@@]2(CCN(C(c3ccccc3)c3ccccc3)C2)C1,inactive: 5.13%

row,Compound,"activity change, negative = inhibition"
1,NCC(O)C1CCCCCCC1 (stereo not given),inactive: 2.64% [at 75.8 µM]
2,CC(C)c1c(C(=O)N2CCN(CCO)CC2)cnn1-c1nccc(-c2cccs2)n1,inactive: 12.6%
3,Cc1noc(C)c1C(=O)N1CCC[C@@]2(CCN(Cc3cc(C(F)(F)F)cc(C(F)(F)F)c3)C2)C1,inactive: -18.9%
4,C=C[C@@H](C)N(Cc1ccc(OC)cc1)S(=O)(=O)N(Cc1ccccc1)[C@H](C=C)C(C)C,inactive: 4.35%
5,CC1OC(OC2C(CO)OC(OC3C(CO)OC(O)C(O)C3O)C(O)C2O)C(O)C(O)C1NC1C=C(CO)C(O)C(O)C1O (stereo not given),inactive: 6.87%
6,COc1ccc2[nH]cc(CCNc3ncnc4ccc(-c5ccccc5OC)cc34)c2c1,inactive: -19%
7,COc1cccc(-c2nc(NCCNC(C)=O)c3ccccc3n2)c1,inactive: 2.04%
8,COc1ccccc1CNc1ncnc2ccc(-c3cccc(NS(C)(=O)=O)c3)cc12,inactive: -5.16%
9,Oc1ccc(/C=C\c2cc(O)cc(O)c2)cc1,inactive: 6.5%
10,COc1ccc(CN(C)CCn2cc(C(=O)N3CCSCC3)nn2)cc1C,inactive: 3.76%
11,c1cncc(-c2cc(-n3ccnc3)ncn2)c1,inactive: -24.6%
12,CNC1CCCN(c2c(F)cc3c(=O)c(C(=O)O)cn(C4CC4)c3c2OC)C1 (stereo not given),inactive: 14.2%
13,CC(=O)c1ccc(C(=O)N2CCc3c(cnc(C)c3CNC(=O)c3ccc4c(c3)OCO4)C2)s1,inactive: -5.6%
14,CC(CN(C)C)CN1c2ccccc2S(=O)(=O)c2ccccc21 (stereo not given),inactive: 32.1%
15,CC(C)CN1CCC(=O)N([C@H](COc2ccccc2)Cc2ccccc2)CC1,inactive: -8.63%
16,COc1ccccc1-c1nc(NCc2cnc(C)cn2)c2ccccc2n1,inactive: 12.3%
17,COC(=O)CC1C(C)(C)C(OC(C)=O)C2CC3=C4CC(=O)OC(c5ccoc5)[C@]4(C)CCC3[C@@]1(C)C2=O (stereo not given in full),inactive: -3.44%
18,CS(=O)(=O)Nc1cccc(-c2ccc3ncnc(Nc4ccc(F)cc4)c3c2)c1,inactive: 10.5%
19,COc1ccccc1-c1nc(NCc2cccs2)c2ccccc2n1,inactive: -2.85%
20,CC(=O)[C@H]1CCC2C3CC=C4C[C@@H](OS(=O)(=O)O)CC[C@]4(C)C3CC[C@@]21C (stereo not given in full),inactive: 41.8% [at 75.8 µM]
21,O=C1C[C@@H]2c3c(cccc3CN1Cc1ccccc1Br)C[C@@H](O)[C@H]2O,inactive: 13.4%
22,COc1ccc(-c2nc3cnc(N4CCOCC4)nc3n(-c3ccccc3)c2=O)cc1,inactive: 9.06%
23,CC(C)(C=O)Cc1cc(C(C)(C)C)c(O)c(C(C)(C)C)c1,inactive
24,CN(C)c1ccc(/C=C/c2ccnc3ccc(F)cc23)cc1,inactive: 17.4%
25,COC(=O)c1c(OCC2CCCN(C)C2)cc(=O)n2c1CCN(Cc1ccc(OC)c(O)c1)CC2 (stereo not given),inactive: 8.72%
